About 60 (0.1%) of roughly 46,000 compounds were called active. Roughly 3% stayed inconclusive and do not appear here. Calls follow the shape of the dose curve; as a rule, active = well fitted inhibition curve with a large enough effect; inconclusive = small, poorly fitted or top-dose-only effect; inactive = no such curve, though single readings can be large or run the other way. The list shows a part of the results.
Experiment: Primary qHTS assay for Inhibitors of ovarian cancer metastasis using an organotypic tumor microenvironment (TME) model. Also: nearly all actives have a fitted effect of over 65% in size.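 As to activity change, negative = inhibition: plate controls were DMSO wells for no effect and tomatine positive control wells for full effect.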
Details: SKOV3ip1-GFP adhesion/invasion on 3D omental model, fluorescence; series mostly up to 45.8 µM; activity change, negative = inhibition: at the top concentration
Procedure, shortened: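 Adhesion/invasion was scored as fixed GFP-labeled SKOV3ip1 cell counts (488/509 nm), normalized to DMSO and tomatine controls. Cancer cells in serum-free medium, with four compound doses (0.36-46 umol/L), sat 2 hr at RT then 16 hr at 37 C on a 48 hr fibroblast/mesothelial/ECM culture.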

| SMILES | outcome | activity change, negative = inhibition |
| --- | --- | --- |
| COC(=O)c1ccccc1NC(=O)CSc1nc(=O)cc(N)n1-c1ccccc1 | inactive | – |
| Cc1ccc(NC(=O)Cn2c(=O)n(Cc3nc(-c4ccccc4)no3)c(=O)c3ccccc32)cc1C | – | inactive: 2.84% |
| CCOc1ccc(NC(=O)CSc2nnc(-c3ccc(OCC)cc3)o2)cc1 | inactive | – |
| Cc1cccc(NC(=O)COc2ccc(-c3nn(C)c(=O)c4ccccc34)cc2)c1 | – | inactive: 9.65% |
| CCOc1ccc(CCNC(=O)CCCc2nnc3n(CC)c(=O)c4sccc4n23)cc1OCC | – | inactive: -0.637% |
| COc1cc(OC)c(NC(=O)CN2CCCN(Cc3ccccc3C)S2(=O)=O)cc1Cl | – | inactive: 3.29% |
| COc1cc(NC(=O)C(Cc2ccccc2)NS(=O)(=O)c2cccc3nsnc23)cc(OC)c1 (centres undefined) | – | inactive: -2.19% |
| Cc1cccc(NC(=O)CSc2nc3ccccc3nc2N2CCCCC2)c1C | – | inactive: -6.65% |
| Cc1ccc(Cl)cc1NC(=O)C1CCN(S(=O)(=O)c2cccc3nonc23)CC1 | inactive | – |
| COc1cccc(Cn2c(=O)n(CCc3ccccc3)c(=O)c3c2c2cc(OC)ccc2n3C)c1 | inactive | – |
| COc1ccc(NC(=O)c2c(NC(=O)c3ccncc3)sc3c2CCC(C(C)(C)C)C3)cc1 (centres undefined) | – | inactive: -6.74% |
| COc1ccc(C(=O)NNc2ncnc3c2cnn3-c2ccc(C)c(Cl)c2)cc1 | – | inactive: 3.95% |
| CCOc1ccc(N(CC(=O)Nc2ccccc2CC)S(=O)(=O)c2c(C)noc2C)cc1 | inactive | – |
| CCn1c(-c2nonc2N)nc2cncc(CNC3CCNCC3)c21 | – | inactive: -21.2% |
| CCCCNc1nc(Oc2ccc(=O)n(C)n2)nc(N2CCOCC2)n1 | – | inactive: 5.57% |
| CC(=O)c1cccc(NC(=O)CCc2c(C)nc3c(c(C)nn3-c3ccccc3)c2C)c1 | – | inactive: -6.93% |
| Cc1cc(C)cc(NC(=O)c2cc(S(=O)(=O)N3CCC(C)CC3)cn2C)c1 | – | inactive: -19.3% |
| O=C(Cn1ccn(-c2ccc(F)c(F)c2)c(=O)c1=O)NCCc1ccccc1 | – | inactive: -4.63% |
| COc1ccc(Br)cc1CNC(=O)c1ccc2c(c1)nc1n2CCC(C)C1 (centres undefined) | – | inactive: -15.4% |
| COc1ccc(C(=O)c2c(N)c(-c3nc(-c4ccc(OC)cc4)cs3)c3ccccn23)cc1 | – | inactive: -0.637% |

| SMILES | outcome | activity change, negative = inhibition |
| --- | --- | --- |
| Cc1cc(C)c2c(=O)cc(C(=O)Nc3c(C)n(C)n(-c4ccccc4)c3=O)oc2c1 | – | inactive: -0.745% |
| CCOc1ccc(-c2cc3c(=O)n(CC(=O)Nc4cc(F)ccc4C)ccn3n2)cc1 | – | inactive: 0.71% |
| O=C(CCC1N=C2c3ccccc3N=C(SCc3cccc(Cl)c3)N2C1=O)N1CCN(c2ccccc2)CC1 (centres undefined) | – | inactive: -1.84% |
| Cc1cc(C)c(/C=C/c2onc(C)c2S(=O)(=O)N2CCC(C(=O)NCc3ccccc3Cl)CC2)c(C)c1 | – | inactive: 9.27% |
| CCn1nc(-c2ccccc2)c(-c2ccccc2)c(C(=O)Nc2ccccc2C#N)c1=O | inactive | – |
| COc1cc2[nH]c(=O)n(CCC(=O)N3CCN(c4ccc(Cl)cc4)CC3)c(=O)c2cc1OC | inactive | – |
| Cc1ccc2oc3c(c(=O)c2c1)C(c1ccc([N+](=O)[O-])cc1)N(CCCN1CCOCC1)C3=O (centres undefined) | – | inactive: 10.5% |
| CCN(Cc1ccccc1)C(=O)Cn1c(=O)n(-c2cccc(C)c2)c(=O)c2c1c1cc(C)ccc1n2C | inactive | – |
| C=CCc1ccccc1OCc1nc2ccccc2n1CC | – | inactive: 0.782% |
| Cc1csc2nc(COc3ccc(NC(=O)COc4ccccc4)cc3)cc(=O)n12 | inactive | – |
| COc1ccc(S(=O)(=O)c2c(O)c3ccc(C(=O)NCc4ccc(Cl)cc4)cc3[nH]c2=O)cc1 | – | inactive: 15.8% |
| CCOC(=O)C1CCN(C(=O)Cn2ncc3c4ccccc4n(Cc4ccc(F)cc4)c3c2=O)CC1 | – | inactive: 0.041% |
| Cc1cc(NC(=O)CSc2ncc(C(=O)Nc3ccc(Cl)cc3)c(=O)n2C)no1 | – | inactive: 3.88% |
| Cc1ccc(NC(=O)CN2C(=O)COc3ccc(S(=O)(=O)NC4CCCC4)cc32)cc1Cl | – | inactive: 0.302% |
| CC(C)(C)C(=O)Cn1c(=O)n(-c2ccccc2)c(=O)c2c3c(sc21)CCC3 | – | inactive: -9.63% |
| CC(=O)c1cccc(NC(=O)C2CCCN(C(=O)c3cnn(-c4ccccc4)c3-n3cccc3)C2)c1 (centres undefined) | inactive | – |
| Cc1cccc(N2CCN(S(=O)(=O)c3cc(Cl)ccc3Cl)CC2)c1C | inactive | – |
| Cn1c2ccccc2c2cnn(CC(=O)N3CCN(c4cccc(C(F)(F)F)c4)CC3)c(=O)c21 | – | inactive: -1.12% |
| CCOc1ccc(C(=O)Nc2cccc(NC(=O)c3ccc(C(C)(C)C)cc3)c2)cc1Br | inactive | – |
| CCCCNc1ccc(-c2nc(-c3ccco3)no2)cc1[N+](=O)[O-] | inactive | – |

| SMILES | outcome | activity change, negative = inhibition |
| --- | --- | --- |
| CCOC(=O)c1c(-c2ccc(C)cc2)csc1NC(=O)c1cc(-c2ccc(C)c(F)c2)on1 | inactive | – |
| CCC(CC)C(=O)Nc1ccc2nc(SCC(=O)N3CCc4ccccc43)sc2c1 | – | inactive: -1.39% |
| Cc1ccc(CNC(=O)CN(c2cccc(C)c2C)S(=O)(=O)c2ccccc2)cc1 | – | inactive: -9.01% |
| CC1=C(C(N)=O)C(c2ccc(F)cc2)n2nc(-c3ccccc3Cl)nc2N1 (centres undefined) | – | inactive: 0.984% |
| O=C(c1ccc2c(c1)N(Cc1ccc(F)cc1)C(=O)c1ccccc1S2(=O)=O)N1CCN(Cc2ccccc2)CC1 | inactive | – |
| COc1ccc(CC(=O)NCc2ccc3c(c2)CCN3C(C)=O)cc1 | – | inactive: 0.362% |
| COc1ccc(-c2nc(SCC(=O)Nc3ccc4c(c3)OCCO4)c(-c3ccc(F)cc3)[nH]2)cc1OC | – | inactive: 13.5% |
| O=C(OCc1cc(=O)n2nc(C3CCCCC3)sc2n1)c1ccccc1Cl | – | inactive: 3.82% |
| COc1cccc(-c2nnc(SCC(=O)N3CCC(C)CC3)o2)c1 | – | inactive: -13.4% |
| COCCCNC(=O)c1ccc(-n2c(-c3ccccc3)cc3c2CCCC3)cc1 | inactive | – |
| CC(C)CC(=O)n1nc(-c2cccnc2)nc1NCc1ccc(F)cc1 | – | inactive: -3.32% |
| Cc1ccc(NC(=O)CCCn2c(=O)c3cccn3c3ccccc32)cc1C | inactive | – |
| COc1ccc(OCC(=O)OCc2cc(=O)n3nc(-c4cccs4)sc3n2)cc1 | – | inactive: -20.8% |
| Cc1cc(C)n(-c2nc3ccccc3nc2Nc2ccc(Cl)c(C(=O)OC(C)C)c2)n1 | – | inactive: 4.14% |
| Cc1cc(C)cc(NC(=O)CSc2oc(-c3ccccc3)nc2S(=O)(=O)c2ccccc2)c1 | – | inactive: -1.9% |
| CCc1ccc(O)c(C(=O)c2cnc3cc(-c4ccc(C)cc4)nn3c2)c1 | – | inactive: 1.07% |
| N#Cc1c(C(F)(F)F)cc(-c2cccs2)nc1SCC(=O)Nc1ccccc1F | – | inactive: 3.13% |
| Cc1ccc(OCC(=O)Nc2cccc(OCc3cc(=O)n4cccc(C)c4n3)c2)cc1C | inactive | – |
| Cc1ccc(CNC(=O)CCc2c(C)nc3nc(C)nn3c2C)cc1 | inactive | – |
